# Measurements taken from PubChem BioAssay AID761 (NMMLSC, 2007).
# Out of some 190,000 compounds screened, about 400 (0.21%) were called active. Inconclusive means that the source gave no clear call. Such entries were picked first, then a sample of the others.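 Rule for the calls: active = percent activity GTP binding at least 20 points away from the 100% baseline, either down as inhibitor or up as activator; inconclusive = compound flagged as likely green fluorescent from well-wide comparison; inactive = the rest.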
# Target: Cell division control protein 42 homolog (Homo sapiens) (UniProt P60953)
# UniProt P60953, sequence (P60953 whole entry, looked up): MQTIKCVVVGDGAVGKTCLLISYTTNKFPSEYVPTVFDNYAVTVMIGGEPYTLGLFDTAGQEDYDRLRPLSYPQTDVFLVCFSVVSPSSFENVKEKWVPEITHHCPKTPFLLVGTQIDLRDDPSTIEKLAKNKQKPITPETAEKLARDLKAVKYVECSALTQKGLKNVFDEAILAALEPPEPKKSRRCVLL
# Experiment: wildtype Cdc42 fluorescent GTP binding changes, either direction – biochemical, multiplex bead flow cytometry, Bodipy-GTP, primary screen (AID 761);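 note: median bead fluorescence of bound Bodipy-FL-GTP at 100 nM; 0% = excess unlabeled GTP control and 100% = no compound control; below 100% means less GTP binding so inhibitor and above means activator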
# Conditions: GST-Cdc42 beads, at 10 µM, actives lie on both sides
row,SMILES,percent activity (GTP binding)
1,NS(=O)(=O)c1ccc(CCNC(=O)CN2CCC(Cc3ccccc3)CC2)cc1,inconclusive: 90%
2,Cc1cc(C)c(O)c(-c2cc(C(=O)Nc3ccc(S(=O)(=O)N4CCOCC4)cc3)[nH]n2)c1,inconclusive: 92%
3,Cc1ccc(-c2csc(NC(=O)CCNC(=O)c3ccccc3Cl)n2)cc1,inactive: 100%
4,Cn1c(=O)n(C)c2cc([N+](=O)[O-])c(N3CCN(S(=O)(=O)c4ccc5ccccc5c4)CC3)cc21,inconclusive: 93%
5,CCOc1ccccc1/C=N/NC(=O)c1cccc(S(=O)(=O)N(CC)CC)c1,inconclusive: 93%
6,O=C(O)CC/C(=C\c1cccc(NC(=O)c2ccccc2Cl)c1)c1nc2ccccc2s1,inactive: 87%
7,O=C(NC(=S)Nc1ccc2c(c1)OCCO2)c1cccc2ccccc12,inactive: 99%
8,O=C(COC(=O)C12CC3CC(CC(C3)C1)C2)Nc1nc2c(F)c(F)c(F)cc2s1,active: 74%
9,CCC(=O)Nc1nc(-c2ccccc2)ns1,inconclusive: 103%
10,COc1ccc(C2CC(C(F)(F)F)n3nc(C(=O)NCc4cn(C)nc4C)c(Cl)c3N2)cc1 (stereo unspecified),inconclusive: 104%
11,Cc1ccc(OCC(=O)Nc2ccc3c(c2)CCC3)c([N+](=O)[O-])n1,inconclusive: 92%
12,Cc1ccc(S(=O)(=O)CC(CN2CCCCC2)N2CCCCC2)cc1 (stereo unspecified),inconclusive: 92%
13,NNC1=N[C@H]2CS(=O)(=O)C[C@H]2S1,inactive: 100%
14,N#Cc1nc(COc2ccccc2Cl)oc1NCc1ccc(F)cc1,inconclusive: 112%
15,CN(C)c1ccc(NC(=O)CN2C(=O)CC(c3ccccc3)=Nc3ccccc32)cc1,inconclusive: 92%
16,Cc1ccc(OCC(=O)NCc2cccs2)c([N+](=O)[O-])n1,inactive: 93%
17,Cc1ccc(CSc2nnc(-c3ccccc3N)c(=O)[nH]2)cc1,inactive: 102%
18,COc1ccc(/C=C2/SC(=O)N(CC(=O)Nc3cc(C)on3)C2=O)cc1OC,inconclusive: 102%
19,CN(C)c1nnnn1-c1ccccc1Oc1ncc(C(F)(F)F)cc1Cl,inconclusive: 92%
20,C=CCn1c(CCNC(=O)c2ccccc2F)nnc1SCC(=O)Nc1ccc(OC)cc1,inactive: 96%
21,CCCNC(=O)NC(=O)CSc1nncs1,inactive: 97%
22,N#C/C(=C\c1ccncc1)c1nc2ccccc2c(=O)[nH]1,inconclusive: 94%
23,N#Cc1c(N)n(CCCN2CCOCC2)c2nc3ccccc3nc12,inconclusive: 96%

row,SMILES,percent activity (GTP binding)
1,O=S(=O)(Nc1cc(Sc2cccc3cccnc23)c(O)c2ccccc12)c1ccccc1,inconclusive: 91%
2,CC(C(=O)NCC1CCCCC1)N1CCc2ccccc2C1 (stereo unspecified),inconclusive: 92%
3,Cc1cc(Cl)ccc1OC(C)C(=O)NCCCn1ccnc1 (stereo unspecified),inactive: 99%
4,Cc1cc(NC(=O)c2ccccc2)nc2c1c(=O)oc1ccccc12,inconclusive: 81%
5,O=C1CC(Cc2ccccc2)C(=O)N1CCCn1ccnc1 (stereo unspecified),inconclusive: 102%
6,Cc1nn(-c2ccccc2)c(N2CCCC2)c1/C=C1\N=C(c2ccc(OC(C)C)cc2)OC1=O,inactive: 94%
7,CCCCCCSc1nc(O)c(C2OC(=O)c3c2ccc(OC)c3OC)c(=O)n1-c1ccccc1 (stereo unspecified),inactive: 101%
8,O=C(CN1C(=O)S/C(=C/c2ccncc2)C1=O)N1CCOCC1,inactive: 99%
9,COc1cccc(C(=O)CN(C(=O)c2ccc(Cl)cc2Cl)N2C(=O)c3ccccc3C2=O)c1,inactive: 101%
10,O=C(CNC(=O)C1CCCCC1)OCC(=O)c1ccc(Cl)s1,inconclusive: 93%
11,Cc1ccccc1CSc1nnc(C)c(=O)n1N,inactive: 95%
12,COCc1cc(C)nc(OCC(=O)N/N=C/c2ccc(O)cc2O)c1C#N,inconclusive: 91%
13,O=C(c1ccc(Cl)c(Cl)c1)N1CCC(=O)N(C(COCc2ccccc2)Cc2ccccc2)CC1 (stereo unspecified),inactive: 97%
14,COCCCn1c(SCc2cc(=O)[nH]c3ccccc23)nnc1-c1ccco1,inconclusive: 96%
15,CC(=O)c1ccc(NC(=O)CSc2nnc(NC(=O)CN3CCOCC3)s2)cc1,inconclusive: 103%
16,COc1cc(S(=O)(=O)Nc2ccc(Br)cc2)ccc1N,inactive: 93%
17,C/C(=N\NC(=O)c1cccc(C)c1)c1ccc(N2CCOCC2)cc1,inconclusive: 97%
18,Cc1ccc(-c2cccc(CN3CCN(C4CCN(C(C)C)CC4)C(CCO)C3)c2)o1 (stereo unspecified),inactive: 95%
19,CC1CCCCC1NC(=O)COC(=O)Cc1ccc(Br)cc1 (stereo unspecified),inconclusive: 96%
20,CC1(C)COC(/C=C/c2ccc([N+](=O)[O-])cc2)=N1,inconclusive: 106%
21,CC(OC(=O)c1nsc(Cl)c1Cl)C(=O)NCc1ccc2c(c1)OCO2 (stereo unspecified),inconclusive: 88%
22,Cc1ccc(NC(=O)C(C)N2C(=O)c3ccccc3C2=O)cc1S(=O)(=O)N1CCOCC1 (stereo unspecified),inactive: 95%
23,COC(=O)c1ccc(CSc2nnc(-c3ccncc3)n2Cc2ccccc2)o1,inconclusive: 103%

row,SMILES,percent activity (GTP binding)
1,O=C(CCN1C(=O)C2CCCCC2C1=O)Nc1ccc(F)c(F)c1F (stereo unspecified),inactive: 99%
2,Cc1ccc(OCC(=O)N/N=C\c2ccc(O)cc2)c([N+](=O)[O-])c1,inconclusive: 90%
3,O=C(COC(=O)C1CCN(/C=C/C(=O)C(F)(F)F)CC1)Nc1cccc(F)c1,inactive: 102%
4,O=C(OCc1cc2ccccc2[nH]c1=O)C1CCCO1 (stereo unspecified),inconclusive: 105%
5,O=C(NCCn1ccc2ccccc21)c1ccc(S(=O)(=O)N2CCOCC2)cc1,inactive: 103%
6,Clc1cccc(Cl)c1COc1ccccc1CNn1cnnc1,inactive: 99%
7,O=C1c2ccccc2C(=O)N1CCCOc1ccccc1,inconclusive: 98%
8,CCCCn1c(N)c(Sc2ccc(C)cc2)c(=O)[nH]c1=O,inconclusive: 108%
9,O=C(N/N=C/c1cccc(O)c1)c1ccc(NC(=O)c2cccc([N+](=O)[O-])c2)cc1,inconclusive: 96%
10,O=C(CCc1nnc(CCCCc2ccccc2)o1)NCCN1CCCCC1=O,inactive: 98%
11,CC1(C)CC(=O)c2c(O)cc(OCc3ccc([N+](=O)[O-])cc3)cc2O1,inconclusive: 108%
12,Cc1cccc2cc(CN(CCCN(C)C)C(=S)NCCc3ccccc3)c(=O)[nH]c12,inactive: 98%
13,CCc1nnc2c(N(C)C)nc3ccccc3n12,inactive: 92%
14,C(=N\Nc1nc(Nc2ccccc2)nc(Nc2ccccc2)n1)/c1cccnc1,inconclusive: 88%
15,O=C1CN(CC(=O)Nc2cccc(Cl)c2Cl)c2ccccc2N1,inconclusive: 94%
16,CC(C)(C)NS(=O)(=O)c1ccc(CCC(=O)N2CCCC2)cc1,inactive: 94%
17,CCC(Oc1ccc2ccccc2c1)C(=O)O (stereo unspecified),inconclusive: 130%
18,COc1ccc2oc(=O)c(C(=O)N3CCN(c4ccccc4F)CC3)cc2c1,inconclusive: 95%
19,O=C(Cn1cnc2c(nnn2Cc2ccc(F)cc2)c1=O)NC1CCCC1,inconclusive: 97%
20,O=C(O)c1ccccc1SCc1ccc2c(c1)OCO2,active: 135% [activator]
21,Cc1nn(C)c(C)c1CNC(=O)c1cnn2c1NC(c1ccccc1)CC2C(F)(F)F (stereo unspecified),inconclusive: 109%
22,Cc1ccc2sc(N(CCCN(C)C)C(=O)CN3C(=O)c4ccccc4C3=O)nc2c1C,inactive: 92%
23,CCC(=O)N1c2ccc(S(=O)(=O)N(CCO)Cc3ccccc3)cc2CC1C (stereo unspecified),inconclusive: 104%

row,SMILES,percent activity (GTP binding)
1,Cc1ccc(C(=O)CC(=O)COc2ccc(Cl)cc2C)cc1,inconclusive: 91%
2,COc1cc(/C=N/NC(=S)Nc2cccc(C(=O)O)c2)cc(OC)c1OC,inconclusive: 99%
3,COc1cc(NC(=O)c2cccs2)c(OC)cc1NC(=O)CCC(=O)Nc1ccc2ncccc2c1,active: 71%
4,Cn1c(COc2ccc3ccccc3c2)nnc1SCC(=O)OC1CCCCC1,inactive: 98%
5,CCOC(=O)N1CCC(NC(=O)CCc2c(C)nc3c(c(C)nn3C(C)(C)C)c2C)CC1,inconclusive: 102%
6,COc1cc(NS(=O)(=O)c2ccc(NC(=O)/C=C/c3cccc([N+](=O)[O-])c3)cc2)ncn1,inactive: 83%
7,Cc1ccc2[nH]cc(C(=O)CCl)c2c1,inconclusive: 104%
8,Cc1c(Cl)sn(-c2ccc(Cl)cc2)c1=O,inactive: 92%
9,COc1ccccc1-n1c(=O)c2c3c(sc2n2c(=S)[nH]nc12)CCC3,inconclusive: 91%
10,COc1ccc(S(=O)(=O)N(C)CC(=O)N2CCOCC2)cc1Cl,inconclusive: 89%
11,CCC(C)(C)NC(=O)c1ccc(S(=O)(=O)N(C)c2ccccc2OC)cc1,inconclusive: 91%
12,Cc1[nH]c2ccccc2c1C(=O)CNc1nccs1,inconclusive: 397%
13,CCOc1cc(C2C(C#N)=C(N)OC3=C2C(=O)CC(C)(C)C3)cc([N+](=O)[O-])c1O (stereo unspecified),inconclusive: 91%
14,O=C(COc1ncnc2cc([N+](=O)[O-])ccc12)NCc1ccc2c(c1)OCO2,inconclusive: 74%
15,CCCN(CCC)c1cc(Cl)nc(N)n1,inconclusive: 94%
16,O=C(CCN1CCc2ccccc2C1)Nc1cccc(F)c1,inconclusive: 104%
17,CC(NC(=O)OCc1ccccc1)C(=O)Oc1cc2oc(=O)cc(-c3ccccc3)c2cc1Cl (stereo unspecified),inconclusive: 93%
18,Cc1ccccc1NC(=S)N(CCCN1CCOCC1)Cc1ccccn1,inconclusive: 107%
19,FC(F)(F)c1ccc(C2NCCc3sccc32)cc1 (stereo unspecified),inactive: 97%
20,Cn1c(C(=O)N2CCc3ccccc3C2)cc2c(=O)n3ccccc3nc21,inconclusive: 119%
21,O=C1OC(OC2CCCCC2)(c2ccccc2)c2ccccc21 (stereo unspecified),inconclusive: 112%
22,CN(C(=O)Nc1ccc(Cl)cc1Cl)C1CCCC1,inactive: 97%
